Source: the supplement of paper PMC3334620
Whole data set: some 33,000 sequences, median “E-score (-0.5 to 0.5)” near -0.056, cut for the highest 2% near 0.38. The list shows a part of the results.

molecular target: Stb4 (UniProt P50104); test: PBM E-score (8-mer binding enrichment) (E-score (-0.5 to 0.5)); higher = stronger / more preferred TF binding; most listed sequences are background and not binding sites; settings: protein concentration: 200 nM; construct: GST-DNA-binding domain
Summary of the method: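 The E-score, a modified Wilcoxon-Mann-Whitney statistic, was computed by the Universal PBM Analysis Suite for every ungapped eight-base word pooled with its reverse complement. Scans behind it were normalised with masliner after bound GST-tagged yeast transcription factors were detected with fluorescent anti-GST. The proteins, at about 100-200 nM, had been applied to universal all-10-mer Agilent arrays made double-stranded by primer extension.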

Sequence	PBM E-score
CCACACAG	-0.164
GGTAAATA	0.143
CTTAAGTA	-0.166
CCAATTCA	-0.215
AGTTACCA	0.0897
CATGTGCA	-0.0803
AGCATGGC	-0.06
ACGGAGGG	0.202
CCTGTACA	-0.178
GCTAGACC	-0.0645
ATGCAGGA	-0.242
CATAGAAA	0.04
GTTACGTA	-0.196
CAGGCATG	-0.167
AACGATGT	-0.0358
AGCGATCC	0.108
GCTCTGGA	-0.0616
AGCTCCCT	-0.271
CAGCGACG	-0.161
AGAATTAC	0.115
GAATGTCA	-0.0469
CTCACACA	-0.202

Sequence	PBM E-score
CCAGACCA	-0.234
GCTAGAAA	0.0522
CTATGCAC	-0.12
GACACACC	0.0797
TGAGCCAA	-0.23
CAACTGGA	-0.219
GATGCGCC	-0.0232
AAGAATTG	-0.0708
TAGCCATA	-0.215
ATGGGAGC	0.00961
ACGCTAGC	-0.131
AGTGCATA	-0.141
ATCTCCCC	0.055
ACAAATTA	0.0895
ATGGGTCA	-0.235
TGACACAA	-0.146
CCATCCCA	-0.0324
AATGTGTC	-0.0605
CCCTTAGA	-0.394
CGTTCTCA	-0.213
GGTTCGAC	-0.0494
CAACCATC	0.0239

Sequence	PBM E-score
ACTACGCA	-0.216
AACGGGCC	0.0603
CAGAGAGC	-0.206
ATTTACAG	-0.0857
AAGTGTCT	0.0186
AAAGAGTC	-0.196
GCACCGCA	-0.074
ACAGATTC	-0.0433
AGGTGAAG	-0.178
TGTCGACA	-0.237
GTACATAA	-0.00711
ATCGGCAA	0.366
ACTGCAGC	-0.077
ACCGCCAC	0.0187
AAGGAATT	0.0157
GCCGCCCC	0.245
GATCAAGA	0.0801
AATGAAAC	-0.0491
AACGCGGG	0.329
CACCGAGG	0.308
CATCAGCC	0.0277
ACCTCCTG	-0.279

Sequence	PBM E-score
AAACTCGG	0.419
ACCCTGGG	-0.051
CCAGCCAG	-0.073
AGATATTA	0.054
TACCTTCA	-0.121
AGACGCCA	-0.292
GCGATCCA	-0.159
ACCTGGGG	-0.33
CCGCTTAA	0.0858
CGACGCCC	0.203
TAAGAGTA	-0.0965
CTGCATTA	-0.0989
CCAGAGGC	-0.289
CATGATCA	-0.105
AGGCTATA	-0.125
GGACTGGA	-0.198
ACGAACGG	0.0948
AATAGAGA	-0.145
CAAGCGAG	0.0404
CATCCCCA	-0.122
GCATAGAA	0.0466
CATTAATA	-0.0256

Sequence	PBM E-score
ACGTCTCG	0.115
GTGGAGTA	-0.222
AACCGTGG	-0.0921
ACCCAGTA	-0.24
CCGCGCGC	0.199
CTGCTGCC	-0.157
GGTAGACA	0.0106
ATCTCTTA	0.059
ATGTGCAC	-0.047
AGAGTCCC	-0.0943
AAGCAGCT	-0.0723
CCTCCCGC	0.133
ACAGGACC	-0.0508
AGCACGAG	-0.0473
GGTATCAA	0.031
AGGGATCC	0.163
ATGTCGCG	0.0443
CGAGAACG	0.206
GCTGACCA	0.0997
GCGAGACC	-0.0423
ACTTGTTC	-0.0214
AATGAATT	-0.0341
